Data: PMC4336329 (PLoS ONE, 2015)
Among all 310,000 compounds or so, about 14,000 (4.5%) showed an effect of 50% or more. The effect is printed as a negative number. The list shows a part of the results.

Target: human ether-à-go-go-related gene (hERG) potassium channel (human, UniProt Q12809)
Assay: primary screen, population patch clamp on CHO cells stably expressing hERG
Procedure: Briefly, Chinese hamster ovary (CHO) cells stably expressing the hERG channel were dislodged from tissue culture flasks and dispensed into PPC plates. […] During the recording, background leak currents were estimated by a 100 ms step to -80 mV from an initial holding potential of -70 mV and subtracted from the subsequent current measurement. The campaign was conducted in two phases using slight differences in recording protocol. In the first phase, the initial voltage pulse used a 100 ms step to -30 mV from a holding potential of -70 mV, a 2 s conditioning step to +25 mV, and a 2 s test step to -30 mV. During the second phase of the screen, the potential during the conditioning step was raised to +45 mV. In both phases of the campaign, a secondary voltage pulse was applied using the same parameters as the second phase initial pulse. The initial and secondary pulses were applied in the absence of compound, and upon application of 1 μM and 10 μM test concentrations. […]
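Also: peak tail current of the secondary pulse compared with the same well before compound.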

human ether-à-go-go-related gene (hERG) potassium channel, sequence (Q12809 whole entry, looked up): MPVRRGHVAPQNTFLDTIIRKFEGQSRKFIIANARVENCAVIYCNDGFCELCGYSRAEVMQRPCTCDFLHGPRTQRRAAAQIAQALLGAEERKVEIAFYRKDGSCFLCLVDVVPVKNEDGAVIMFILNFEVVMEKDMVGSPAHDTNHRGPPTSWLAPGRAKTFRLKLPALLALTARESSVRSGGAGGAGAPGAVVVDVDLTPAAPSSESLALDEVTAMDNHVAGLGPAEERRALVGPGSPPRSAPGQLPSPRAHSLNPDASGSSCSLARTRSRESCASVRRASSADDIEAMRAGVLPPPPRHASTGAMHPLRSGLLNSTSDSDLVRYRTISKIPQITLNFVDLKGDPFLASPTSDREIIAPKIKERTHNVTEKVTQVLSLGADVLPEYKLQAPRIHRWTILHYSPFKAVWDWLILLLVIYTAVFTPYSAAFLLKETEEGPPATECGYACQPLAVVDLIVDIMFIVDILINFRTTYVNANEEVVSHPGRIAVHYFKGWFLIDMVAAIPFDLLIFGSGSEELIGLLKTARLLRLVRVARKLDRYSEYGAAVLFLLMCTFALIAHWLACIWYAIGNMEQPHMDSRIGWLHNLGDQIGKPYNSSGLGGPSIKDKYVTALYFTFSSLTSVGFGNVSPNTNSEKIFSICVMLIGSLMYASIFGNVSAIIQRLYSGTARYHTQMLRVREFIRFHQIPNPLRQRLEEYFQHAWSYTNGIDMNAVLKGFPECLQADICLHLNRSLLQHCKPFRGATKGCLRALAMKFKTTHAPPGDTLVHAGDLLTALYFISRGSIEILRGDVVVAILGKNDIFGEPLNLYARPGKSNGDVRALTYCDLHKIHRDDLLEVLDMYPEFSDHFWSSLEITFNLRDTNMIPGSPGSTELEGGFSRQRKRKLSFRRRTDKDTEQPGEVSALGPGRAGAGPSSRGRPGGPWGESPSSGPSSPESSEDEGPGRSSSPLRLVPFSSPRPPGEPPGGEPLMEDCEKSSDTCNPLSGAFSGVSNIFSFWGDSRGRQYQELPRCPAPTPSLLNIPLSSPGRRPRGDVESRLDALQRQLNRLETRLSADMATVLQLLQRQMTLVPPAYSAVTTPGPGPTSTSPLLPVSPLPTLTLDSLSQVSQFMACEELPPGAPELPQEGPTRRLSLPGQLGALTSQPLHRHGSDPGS

SMILES | hERG current change (%, negative = inhibition) at 10uM [%]
Cc1cc(C)c(NC(=O)CNC(=O)Cc2sc(C)nc2-c2ccc(F)cc2)c(C)c1 | 4.09
Cc1noc(C)c1C(=O)Nc1nnc(-c2ccccc2)s1 | 1.81
O=C1CC(c2ccccc2)CN1C(=O)c1cncc(Br)c1 (stereo not shown) | 5.75
CSC1=NCCN1C(=O)C(C)(C)Oc1ccc(Cl)cc1 | -6.98
CCc1ccc(NC(=O)CCc2nc3sc4c(c3c(=O)[nH]2)CCCC4)cc1 | -0.306
COc1ccccc1-c1coc2c(CN3CCC(C)CC3)c(O)ccc2c1=O | 7.18
CN(C)c1ccc(/C=N/NC(=O)CCc2c[nH]c3ccccc23)cc1 | -2.72
C/C(Cn1cnc([N+](=O)[O-])n1)=N\NC(=O)c1ccc(F)cc1 | 1.88
Fc1ccc(-c2nnc(N3CCOCC3)c3ccccc23)cc1F | -33.8
CCN(CC)CCN1C(=O)C(=O)/C(=C(/O)c2ccc(F)cc2)C1c1cccnc1 (stereo not shown) | 17.7
Cc1c(NN=C(C#N)C#N)c(=O)n(-c2ccccc2)n1C | 13.5
Fc1ccc(-c2nnc(-c3ccc(Cl)cc3Cl)o2)cc1 | -12.6
Cc1[nH]c2ccccc2c1CC(=O)O | 12.1
COc1ccc(N(Cc2cc3ccc(C)cc3[nH]c2=O)C(C)=O)cc1 | -9.53
CC(C)(C)C(=O)Nc1ccc(/C=C/C(=O)c2ccco2)cc1 | 15.2
Clc1cccc(-c2nc3nc4ccccc4nc3n2Cc2ccccc2)c1 | 5.67
O=c1c2c3c(sc2nc2n1CCC2)CCC3 | 4.73
O=C(O)c1cccc(NS(=O)(=O)c2ccc(NC(=O)c3ccco3)cc2)c1 | 5.46
Cc1cc(C(=O)CCl)c(C)n1CC1COc2ccccc2O1 (stereo not shown) | -13.2
FC(F)(F)c1ccccc1NC(=S)NN=C1CCCCCC1 | 23.5
O=C(NC(=S)Nc1cc(-c2nc3ccccc3[nH]2)ccc1Cl)c1ccc2c(c1)OCO2 | 20
COc1ccc2nc(NS(=O)(=O)c3ccc(NC(C)=O)cc3)sc2c1 | 14
CCOc1ccc(-c2nn3c(-c4ccc(F)cc4)nnc3s2)cc1 | 9.44
Cc1ccc(N2C(=O)N(Cc3ccccc3C)c3ccccc3S2(=O)=O)cc1 | -4.54
N/C(=N/O)c1nc(N2CCCCC2)nc(N2CCCCC2)n1 | 7.86
